Where “and” joins values, the source holds several entries; their conditions need not be identical. Identical values can stand only once. The source gives many values for each of these; only a part stands here.
Assay: xn = mol fraction of the nth substance listed

CC(C)(C)O + O
Settings | viscosity
298 K, 101 kPa, x1 = 0.005 | 0.976 mPa·s
298 K, 101 kPa, x1 = 0.01 | 1.076 mPa·s
298 K, 101 kPa, x1 = 0.03 | 1.566 mPa·s
298 K, 101 kPa, x1 = 0.05 | 2.117 mPa·s
298 K, 101 kPa, x1 = 0.08 | 2.777 mPa·s
298 K, 101 kPa, x1 = 0.1 | 3.243 mPa·s
298 K, 101 kPa, x1 = 0.15 | 3.857 mPa·s
298 K, 101 kPa, x1 = 0.2 | 4.342 mPa·s
298 K, 101 kPa, x1 = 0.25 | 4.615 mPa·s
298 K, 101 kPa, x1 = 0.3 | 4.747 mPa·s
298 K, 101 kPa, x1 = 0.35 | 4.838 mPa·s
298 K, 101 kPa, x1 = 0.4 | 4.815 mPa·s
298 K, 101 kPa, x1 = 0.5 | 4.698 mPa·s
298 K, 101 kPa, x1 = 0.6 | 4.494 mPa·s
298 K, 101 kPa, x1 = 0.7 | 4.298 mPa·s
298 K, 101 kPa, x1 = 0.8 | 4.152 mPa·s
298 K, 101 kPa, x1 = 0.85 | 4.106 mPa·s
298 K, 101 kPa, x1 = 0.88 | 4.108 mPa·s
298 K, 101 kPa, x1 = 0.9 | 4.113 mPa·s
298 K, 101 kPa, x1 = 0.92 | 4.114 mPa·s
298 K, 101 kPa, x1 = 0.95 | 4.167 mPa·s
298 K, 101 kPa, x1 = 0.97 | 4.215 mPa·s
298 K, 101 kPa, x1 = 0.98 | 4.249 mPa·s
298 K, 101 kPa, x2 = 0.01 | 4.284 mPa·s
298.15 K, 100 kPa, x1 = 0.00982 | 1.087 mPa·s and 1.089 mPa·s
298.15 K, 100 kPa, x1 = 0.02462 | 1.453 mPa·s
298.15 K, 100 kPa, x1 = 0.05982 | 2.38 mPa·s and 2.383 mPa·s
298.15 K, 100 kPa, x1 = 0.09495 | 3.106 mPa·s and 3.12 mPa·s
298.15 K, 101 kPa, x1 = 0.021 | 1.34 mPa·s
298.15 K, 101 kPa, x1 = 0.0267 | 1.46 mPa·s
298.15 K, 101 kPa, x1 = 0.043 | 1.93 mPa·s
298.15 K, 101 kPa, x1 = 0.073 | 2.64 mPa·s
298.15 K, 101 kPa, x1 = 0.0795 | 2.7 mPa·s
298.15 K, 101 kPa, x1 = 0.1 | 3.194 mPa·s
298.15 K, 101 kPa, x1 = 0.1376 | 3.61 mPa·s
298.15 K, 101 kPa, x1 = 0.14 | 3.79 mPa·s
298.15 K, 101 kPa, x1 = 0.2001 | 4.456 mPa·s
298.15 K, 101 kPa, x1 = 0.235 | 4.44 mPa·s
298.15 K, 101 kPa, x1 = 0.266 | 4.71 mPa·s
298.15 K, 101 kPa, x1 = 0.3 | 4.939 mPa·s
298.15 K, 101 kPa, x1 = 0.33 | 4.66 mPa·s
298.15 K, 101 kPa, x1 = 0.392 | 4.8 mPa·s
298.15 K, 101 kPa, x1 = 0.3935 | 4.67 mPa·s
298.15 K, 101 kPa, x1 = 0.3997 | 5.022 mPa·s
298.15 K, 101 kPa, x1 = 0.5001 | 4.926 mPa·s
298.15 K, 101 kPa, x1 = 0.5039 | 4.55 mPa·s
298.15 K, 101 kPa, x1 = 0.584 | 4.58 mPa·s
298.15 K, 101 kPa, x1 = 0.5989 | 4.752 mPa·s
298.15 K, 101 kPa, x1 = 0.6 | 4.37 mPa·s
298.15 K, 101 kPa, x1 = 0.6995 | 4.57 mPa·s
298.15 K, 101 kPa, x1 = 0.7005 | 4.19 mPa·s
298.15 K, 101 kPa, x1 = 0.7978 | 4.399 mPa·s
298.15 K, 101 kPa, x1 = 0.7984 | 4.05 mPa·s
298.15 K, 101 kPa, x1 = 0.8976 | 4.352 mPa·s
298.15 K, 101 kPa, x1 = 0.8987 | 4 mPa·s
303.15 K, 101 kPa, x1 = 0.098 | 2.482 mPa·s
303.15 K, 101 kPa, x1 = 0.1 | 2.578 mPa·s
303.15 K, 101 kPa, x1 = 0.2001 | 3.548 mPa·s
303.15 K, 101 kPa, x1 = 0.217 | 3.581 mPa·s
303.15 K, 101 kPa, x1 = 0.3 | 3.935 mPa·s
303.15 K, 101 kPa, x1 = 0.301 | 3.894 mPa·s
303.15 K, 101 kPa, x1 = 0.3997 | 3.983 mPa·s
303.15 K, 101 kPa, x1 = 0.445 | 3.915 mPa·s
303.15 K, 101 kPa, x1 = 0.5 | 3.811 mPa·s
303.15 K, 101 kPa, x1 = 0.5001 | 3.897 mPa·s
303.15 K, 101 kPa, x1 = 0.592 | 3.646 mPa·s
303.15 K, 101 kPa, x1 = 0.5989 | 3.749 mPa·s
303.15 K, 101 kPa, x1 = 0.694 | 3.488 mPa·s
303.15 K, 101 kPa, x1 = 0.6995 | 3.594 mPa·s
303.15 K, 101 kPa, x1 = 0.79 | 3.33 mPa·s
303.15 K, 101 kPa, x1 = 0.7978 | 3.451 mPa·s
303.15 K, 101 kPa, x1 = 0.8976 | 3.38 mPa·s
303.15 K, 101 kPa, x1 = 0.905 | 3.258 mPa·s
308 K, 101 kPa, x1 = 0.001 | 0.731 mPa·s
308 K, 101 kPa, x1 = 0.005 | 0.783 mPa·s
308 K, 101 kPa, x1 = 0.01 | 0.855 mPa·s
308 K, 101 kPa, x1 = 0.02 | 1.007 mPa·s
308 K, 101 kPa, x1 = 0.03 | 1.175 mPa·s
308 K, 101 kPa, x1 = 0.04 | 1.336 mPa·s
308 K, 101 kPa, x1 = 0.05 | 1.501 mPa·s
308 K, 101 kPa, x1 = 0.06 | 1.651 mPa·s
308 K, 101 kPa, x1 = 0.08 | 1.926 mPa·s
308 K, 101 kPa, x1 = 0.1 | 2.178 mPa·s
308 K, 101 kPa, x1 = 0.15 | 2.724 mPa·s
308 K, 101 kPa, x1 = 0.2 | 2.944 mPa·s
308 K, 101 kPa, x1 = 0.25 | 3.109 mPa·s
308 K, 101 kPa, x1 = 0.3 | 3.209 mPa·s
308 K, 101 kPa, x1 = 0.35 | 3.209 mPa·s
308 K, 101 kPa, x1 = 0.4 | 3.208 mPa·s
308 K, 101 kPa, x1 = 0.5 | 3.077 mPa·s
308 K, 101 kPa, x1 = 0.6 | 2.957 mPa·s
308 K, 101 kPa, x1 = 0.7 | 2.801 mPa·s
308 K, 101 kPa, x1 = 0.8 | 2.678 mPa·s
308 K, 101 kPa, x1 = 0.85 | 2.636 mPa·s
308 K, 101 kPa, x1 = 0.88 | 2.613 mPa·s
308 K, 101 kPa, x1 = 0.9 | 2.603 mPa·s
308 K, 101 kPa, x1 = 0.92 | 2.594 mPa·s
308 K, 101 kPa, x1 = 0.95 | 2.59 mPa·s

— the CheMixHub viscosity set
